Data on 167 variants can be found in the RNAGym collection of RNA variant scans (doi:10.1093/nar/gkz1192).

The source gives no read counts; variants with many changes may rest on few reads.

B1: CPEB3 Ribozyme (parent)
chain: UAACAGGGGGCCACAGCAGAAGCGUUCACGUCGCAGCCCCUGUCAGAUUCUGGUGAAUCUGCGAAUUCUGCUGUAUAUCUC

Variants of B1 are the subject of the series. Description: self-cleavage, relative activity (ratio to wild type); higher = more cleavage; in vitro, sequencing. The gist of the method: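 Libraries of CPEB3 self-cleaving ribozyme mutants came from rounds of error-prone PCR and carried barcodes, which DNA sequencing matched to variants. In vitro transcription used T7 RNA polymerase at 37°C for 5 hours, with a further 15 min in DNase I before EDTA stopped the reaction; the ribozymes cleaved during both steps. The RNA was reverse transcribed with template switching and sequenced on Illumina. Relative activity is the cleaved/total read fraction of a variant divided by that of the unmutated ribozyme, averaged over three batches with at least 5 reads.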
Regarding G7U A13G A64G G70C A75U, the self-cleavage was 0.04.
With G8A C29U U41A A77U, the self-cleavage stood at 0.05.
For the variant G7C U26A C68U, the self-cleavage is 0.31.
In the case of G8A A13U U41A A45U U54A A65U it was 0.05; in that of G7U G9C U25C U41C A47U U60A, 0.06.
In the case of G8A A47U U48C A65G U72C U80C it was 0.14; in that of G8A A21G U26C C29A G70A U72C, 0.04.
In the case of G8A A57G A64U U72G it was 0.06; in that of G8A C27U A47G, 0.08; in that of G8A A15G C68A, 0.17.
In the case of G7C C17U U41G, the self-cleavage was 0.08.
The same measure for G8A A13C U26C U67C C71U: 0.06.
Consider G7C C12G U43C A45G U66C, for which the self-cleavage came to 0.04.
The same measure for G8A A28G U54C A56G A77G: 0.47; for G7U U25A U43C U49C U60C U72G A77U: 0.05.
With G8A A45U A77U, the self-cleavage is 0.16.
Turning to G7U A15U A21G U54C A64G U69C, the self-cleavage is 0.04.
G7U A13U A65G: the self-cleavage amounted to 0.17.
G8A A18U U25C: the self-cleavage worked out at 0.06.
G8A A13G U43A: the self-cleavage is 0.14.
The same measure for G7C G9U A75U: 0.32; for G8A A20G A64U U78C: 0.05.
With G7U A20U U60C U69A, the self-cleavage worked out at 0.05.
Turning to G7U A15U G55C U72C, the self-cleavage stood at 0.22.
As for G8A A20G A21G A35C A47G G73A, the self-cleavage turned out to be 0.07.
In the case of G7U G22C U31A U41A G73U it was 0.17; in that of G7U A13U A20G U43A G52A U58C, 0.24; in that of G7U A13U A56G, 0.18.
The same measure for G7C G8A A13G U74A: 0.64; for G8A C17U A56G: 0.09; for G8A C23G A28G U41A U51A A56G U72G: 0.11.
As to G8A A13U A15G A21G U26C G33A A64U, the self-cleavage amounted to 0.05.
For the variant G8A A18G A45U U49C U69A, the self-cleavage is 0.06.
In the case of G8A A15G U31C U41C A56U U72C A75G it was 0.04; in that of G7U A45C A56U U60A U69C G70A A77G, 0.04; in that of G7U A18G U49C U54C, 0.07.
Take G8A A28C A45G U69C: the self-cleavage was found to be 0.05.
As to G8A U25G U31C A64G, the self-cleavage turned out to be 0.06.
Take G8A U25C G33A A45U A56G U58A: the self-cleavage was 0.04.
For G7C U48C U69A, the self-cleavage was determined as 0.05.
Turning to G7U U26A U48C A57G, the self-cleavage came out at 0.14.
G8A A13U U31C U48C A64U A77G U80C: the self-cleavage is 0.05.
Turning to G7U A21G A45U G52A U76A, the self-cleavage was found to be 0.35.
Regarding G8A C32U U66C U76C A77G, the self-cleavage worked out at 0.19.
On to G8A A13G C23G C37U, for which the self-cleavage stood at 0.12.
With G8A A13G U48C U54C, the self-cleavage was found to be 0.09.
For G7U U25C G30C A64U, the self-cleavage worked out at 0.21.
G8A A56U U58C A65G: the self-cleavage was determined as 0.07.
In the case of G7C A35G U48C G55C it was 0.3; in that of G8A U25C U26G A56U U66C, 0.04; in that of G8A A18U C37G U43A U67C, 0.04.
On to G7U A47G U80C, for which the self-cleavage worked out at 0.21.
Regarding G8A C29U G33A A35U A57G, the self-cleavage came to 0.03.
For G8A U26A U31C A45G, the self-cleavage was 0.14.
For G8A A13U A65G U80C, the self-cleavage was found to be 0.06.
Take G7U C11G U41C U72G: the self-cleavage was 0.05.
In the case of G8A A20U U54C U67C A77G it was 0.08; in that of G8A U25A A28G, 0.05.
For the variant G8A A35U U80C, the self-cleavage came to 0.21.
G7C U31C U49C U51C U78C: the self-cleavage worked out at 0.19.
In the case of G7U A18U U72C U76A, the self-cleavage was 0.04.
The same measure for G8A C17A A35G: 0.07; for G8A A47G U49A: 0.24; for G8A A47G U49C: 0.16.
The same measure for G8A A28G U51C: 0.32; for G7U U25C U58C U60A U66C: 0.07.
G8A G9U A20G U54A: the self-cleavage was found to be 0.09.
G8A A20U A35U U49C: the self-cleavage came out at 0.02.
As to G8A A15U U31C U78C, the self-cleavage was 0.08.
On to G7U C27A A47U U48C U74C, for which the self-cleavage was 0.07.
As for G8A A15G C27G U43C U60A U66C U80A, the self-cleavage was determined as 0.22.
Take G7C G19U U72A: the self-cleavage turned out to be 0.23.
In the case of G8A C14U G19C C40U U43G A57G U72A it was 0.04; in that of G8A A45U A56U U72C, 0.15; in that of G7U U49C U54A, 0.16.
Consider G8A G33A G52U A56G U74C U80C, for which the self-cleavage was determined as 0.07.
On to G7U C14U A20G A35G A56G, for which the self-cleavage was 0.24.
The same measure for G8A U26A U58C U72C: 0.31; for G7C C27U A28G U51C U78C: 0.05; for G8A C11A A15G A18U A20U A45G: 0.08.
In the case of G7U A28G U41C U51A, the self-cleavage was 0.05.
Consider G7C G24A U69C U72C U74A, for which the self-cleavage is 0.2.
Consider G8A A35C A64G, for which the self-cleavage was 0.09.
On to G8A A56G U74A, for which the self-cleavage amounted to 0.09.
Consider G7U A13G U31C U74A U78C, for which the self-cleavage was 0.09.
G7U G16A A18G A45U U51A: the self-cleavage is 0.07.
On to G8A A18G A21G U25A C68G, for which the self-cleavage stood at 0.04.
As to G8A A13G A15G A35U U51C A77G, the self-cleavage stood at 0.14.
Turning to G8A A28G U54C A57U U60C A75G, the self-cleavage turned out to be 0.05.
As for G7U U54A U72G, the self-cleavage is 0.08.
In the case of G8A A13U C29U C34A U41A U60C U74A it was 0.03; in that of G7U A35G A45G U80C, 0.4; in that of G8A A13G G19A U31A G52A U76A A77U, 0.04.
With G8A A20G A57G, the self-cleavage was 0.33.
As to G8A A15G U26A A35G, the self-cleavage came to 0.34.
For the variant G7U U31C U41C U67C, the self-cleavage came out at 0.36.
As for G7U A20U A35G U60C A65G U74C, the self-cleavage came out at 0.15.
Regarding G8A A28C A45C A47G A56U A57G U69C, the self-cleavage was found to be 0.06.
For the variant G8A C23G U25G A28U A35G U41A, the self-cleavage amounted to 0.05.
The same measure for G8A A20U A21G A47G U54G U72C U78C: 0.16; for G7U A56G A64G: 0.21; for G8A A18C A77G: 0.3.
Regarding G7U U60C A65G U74C, the self-cleavage is 0.05.
The same measure for G8A A21G U60A: 0.06; for G7U U51A U54C: 0.24.
G7U U26C C29U U51A: the self-cleavage stood at 0.07.
The same measure for G8A A20G C23A C29A U54A: 0.26.
In the case of G8A C23G U72A U78A it was 0.04; in that of G8A U31C A75U, 0.07; in that of G8A U25A U69C, 0.31.
In the case of G7C A45G U58C U60A U69C, the self-cleavage worked out at 0.
The same measure for G8A A64U U72A: 0.1.
With G8A A28C A65G U72A U80A, the self-cleavage came to 0.05.
For the variant G7C U26C U41C G61C U66C U69A, the self-cleavage was found to be 0.25.
Turning to G7C G19A U41C U43C U60C, the self-cleavage was found to be 0.19.
For the variant G8A U31A A64U U66C U69A, the self-cleavage came to 0.06.
In the case of G7U A35G U48C U51A U54G it was 0.06.
As to G7U A20G U58C U67C, the self-cleavage worked out at 0.13.
In the case of G8A U25C C32A U43C C68U U78C, the self-cleavage amounted to 0.04.
Consider G8A A57G U72C, for which the self-cleavage is 0.09.
In the case of G8A A13U C14G G33A A47C, the self-cleavage stood at 0.08.
For G8A A20G U48C U49C U78C, the self-cleavage was 0.04.
Regarding G7U G10A A15U A18G G19C C23U U25C, the self-cleavage stood at 0.23.
Take G8A A13U A15C A47G U49A: the self-cleavage was 0.07.
Regarding G7U A13G U54C, the self-cleavage is 0.07.
As to G8A U31C A35U, the self-cleavage stood at 0.18.
On to G7C U60C A64G U67C, for which the self-cleavage amounted to 0.19.
For G8A A13G A21U U26C U48C A56G A64U, the self-cleavage was 0.07.
The same measure for G8A C14A U41A U58A U80A: 0.14; for G8A A45G A64G A75G: 0.16; for G8A A15G A18G U69A: 0.25.
For G8A U26G A28C G30A U51C U72C, the self-cleavage amounted to 0.07.
G8A G19A U25C A64G C81U: the self-cleavage came to 0.23.
On to G8A U25C U26C C71G U74C, for which the self-cleavage is 0.14.
For G8A G30A U54A G70C, the self-cleavage was found to be 0.06.
Turning to G8A U31C U41C A47G C50A U58C A77G, the self-cleavage stood at 0.06.
As to G7U C23U U41A, the self-cleavage stood at 0.16.
Turning to G8A A28G U31C U69A A77U, the self-cleavage was 0.06.
On to G7U U26A A64G, for which the self-cleavage came out at 0.18.
Turning to G8A U31C U60C U78C, the self-cleavage came out at 0.05.
Take G8A C11A A13U A18G: the self-cleavage was determined as 0.1.
For G7U U74C A75U, the self-cleavage was 0.08.
For the variant G7U C17U U43A U48C A64G, the self-cleavage turned out to be 0.06.
G7U U60C U74A: the self-cleavage was 0.22.
Regarding G7U A18U A20G U48C U54C A64G A75U, the self-cleavage amounted to 0.05.
Turning to G8A A13U U54A U67C U74C A75U, the self-cleavage was determined as 0.06.
Regarding G7U U41C C44G A45U A56G U66C, the self-cleavage worked out at 0.05.
For the variant G8A A18G U26G A28U, the self-cleavage turned out to be 0.22.
In the case of G8A A15C U60C U78C it was 0.78; in that of G7U G36A U60C, 0.08; in that of G8A A15G A35G G52A, 0.11.
Take G7U G8A A15G A35U C40G A45G U54A: the self-cleavage was 0.24.
With G8A A13U C23U A45U U60C, the self-cleavage amounted to 0.25.
As for G7U A18U A20C G30U A56G, the self-cleavage came to 0.05.
The same measure for G8A A21G U51A U60A A65G A77G: 0.03; for G8A A21G A77G: 0.13.
In the case of G7C U25A G33U A35C C62U U72G it was 0.08; in that of G7U C23U G30U A56G, 0.1.
On to G8A C23A U41C A64G, for which the self-cleavage was 0.07.
In the case of G7C U31A U43G U51C U58C it was 0.1.
In the case of G8A A18G U26A A45U U78C, the self-cleavage is 0.45.
For the variant G7U A20G A28U U72C, the self-cleavage was determined as 0.07.
As for G8A G19U U25C A45G U66C C79A, the self-cleavage is 0.04.
With G8A G19C C32U U49C U66G, the self-cleavage was 0.03.
In the case of G8A U26C U31C A57C U69C, the self-cleavage turned out to be 0.07.
On to G7U U69A U76C, for which the self-cleavage came to 0.08.
The same measure for G7U U60C U69A: 0.35.
